Assay results published in the supplement of paper PMC5499739.
The full ranking holds about 16,000 sequences; the median of “Z-score” is about -0.37, and the highest 2% start at about 3.1. Some of the results follow.

The sequences below were run on RBM10 RRM1-ZnF-RRM2 (GST-tagged construct) (assay: RNAcompete 7-mer binding Z-score; higher = stronger binding preference).
Protocol: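 RNAcompete: 20 pmol GST-tagged RBM10 RNA-binding constructs were incubated with a designed RNA pool of about 241,000 sequences up to 41 nt (1.5 nmol) on glutathione beads for 30 min at 4 °C and washed. Bound RNAs were identified by microarray hybridisation. Each RNA 7-mer is scored by a one-sided Z-score of its enrichment, computed over probes that contain the 7-mer within longer pool sequences.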

Sequence | RNAcompete 7-mer binding Z-score
UCUGGUC | -0.522
GGCCAUC | -0.639
AUUUACA | -0.606
AUUGUUU | -0.595
CCUCUAC | -0.919
GGACAUU | 0.403
UGACGCC | -0.701
UUACUGC | -0.799
AAAAGCC | -0.551
CGUUCGG | -0.42
CAACAAU | -0.428
CAGGUUU | 0.29
AGGGCGA | 2.91
AGCUGUC | -0.795
GGAAGAC | 1.89
CUAUCUC | -0.828
GGGUUAG | 4.04
UGAAUCC | -0.566
GCUCUAU | -0.632
CGCUUAG | -0.65
CGUACGU | -0.107
GCCAUGG | 0.366
GGGGCGC | 1.91

Sequence | RNAcompete 7-mer binding Z-score
GGAGGUA | 3.82
ACCUCAA | -0.788
UACUCGC | -0.548
AGAAGCU | -0.508
AUGUACA | 0.0532
CCCAGCU | -0.657
GUGAAGG | 3.69
UCCACCU | -0.857
UAUCUUU | -0.777
UAAGCGA | -0.238
AGUAAAU | -0.129
UAGGGCU | 1.3
GUUGACC | -0.238
AAAUUGA | -0.00512
CGUUUCA | -0.81
GCAUUUU | -0.956
ACACCAG | -0.406
CAAUUCA | -0.624
CCUCCCC | -0.694
AUGGCCU | -0.409
CCGGCUA | -0.632
UAGAAGA | 0.348
CCAGUGC | -0.267

Sequence | RNAcompete 7-mer binding Z-score
CAGCGCA | -0.231
UAGGGGU | 3.84
CCGCAGA | -0.522
AGCCUGG | -0.46
GUACACA | -0.0452
GGCAGCC | -0.067
AUACAGU | 0.243
UAAGGCG | 1.64
UGCGCCU | -0.806
AGCGAAA | 0.253
GGCCUUC | -0.734
GUGCUGA | 0.294
GGUUCUC | -0.388
AACCAGG | 1.17
ACGUGAU | -0.0998
UGCACGU | -0.384
GGUGAUU | 0.949
GGCCUCA | -0.737
AUCAGGC | 0.37
UGCAGCA | -0.369
ACGGCCU | -0.617
UUGGGGA | 2.27
AGGGUCC | 0.654

Sequence | RNAcompete 7-mer binding Z-score
AACAAAG | 0.355
UCCGCGC | -0.657
ACGCACC | -0.694
UUCAGGG | 0.993
CCAUACA | -0.61
AACGAGA | 0.101
AAUGUGA | 0.822
ACUUGUC | -0.989
AUGUUUA | -0.46
ACAAGCA | -0.122
GACGGCC | -0.34
AUUCAAA | -0.482
UUUUAAU | -0.551
GUCGUCC | -0.377
AUAUCCU | -0.639
UCUCUAG | -0.694
UGUCGCC | -0.737
UGGAGCC | 0.261
CGUAUCC | -0.679
AGCUCGG | 0.0604
UAGCAAC | -0.282
AUGUCUA | -0.69
GUCUCCG | -0.522

Sequence | RNAcompete 7-mer binding Z-score
AUUAGUC | -0.457
AGCGCUA | -0.395
UGUACCU | -0.766
GCAGCGU | 0.264
GGUGUGA | 2.4
CCGCCAG | -0.599
CUAACCA | -0.661
GCCGUGA | -0.114
CAACCGA | -0.573
UACUAGG | 0.512
GUUUGAG | 0.465
ACCCGAA | -0.799
GAUCGGC | -0.133
CGUGGAG | 1.93
UCCCCUC | -0.471
CGGACCC | -0.246
ACCGGUU | -0.34
UAGGUCC | 0.0495
UCUACGG | -0.242
CCGACUG | -0.595
CACUUAG | -0.566
CCAUGUU | -0.825
UUUAGCU | -0.832

Sequence | RNAcompete 7-mer binding Z-score
CCCCUAG | -0.395
CAACACG | -0.322
AAUGUAA | 0.0969
UCUAAGA | -0.595
AUAAGUA | -0.0707
UCUACCA | -0.719
UGCGAGC | 0.286
AAUCUAC | -0.639
UAUCAAG | -0.147
UACCAGG | 0.385
CCGGCCC | -0.763
AAGACAU | -0.118
CAUUUGA | -0.715
AGUAUGG | 2.52
GGAAUAC | 1.02
AAGCUGA | -0.205
AUGAUAU | -0.162
AAUAACG | -0.103
AGAUGUC | -0.544
UCUGCUG | -0.759
UGUUUCA | -0.683
CGAGCAC | -0.195
CCUUCCC | -0.635

Sequence | RNAcompete 7-mer binding Z-score
ACCGUUA | -0.726
UCCCAGA | -0.646
CACUCGC | -0.803
CCUAGGA | -0.0962
AGGGGGG | 2.05
CCGCACA | -0.774
UUCCCUC | -0.752
ACAAGAA | -0.0634
GAAAUGC | 0.0823
GAUUAGC | 0.0786
AGCGAAU | 0.385
GGGCAAU | 2.09
UUACGGA | 0.224
CAACAUG | -0.242
AGCUUAC | -0.544
CAUUAGG | 0.538
UAUGGUC | 0.312
GUACCAG | 0.232
GCCGUGC | -0.395
AACAAUC | -0.253
GGGGGGA | 2.69
GGAUUAC | 0.84
AGCUACC | -0.763

Sequence | RNAcompete 7-mer binding Z-score
AUUUGCA | -0.639
CUAUGGU | -0.227
ACAAACU | -0.723
CUCUGGU | -0.719
CUCUUCC | -0.879
UUCAGAU | -0.453
ACAACAC | -0.304
GUCGUUC | -0.278
GAUAUUA | -0.129
ACACCGG | 0.246
GGUCGCU | -0.111
ACUUCUU | -0.952
AACUCCG | -0.486
GCUGCUA | -0.599
ACGCCCA | -0.916
AGCUUGG | 0.425
GAAACAC | -0.213
AGUACCA | -0.133
GGUGGGC | 3.19
UGUGCCU | -0.446
GUUUAUA | -0.508
GCGCCUG | -0.398
CCAGGCA | -0.195
